Experimental data as given in PubChem BioAssay AID1347417 (National Center for Advancing Translational Sciences (NCATS), 2020).
The whole screen tested about 120,000 compounds, of which about 5,300 (4.4%) were called active. The shares of active, inactive and inconclusive entries below differ from those in the screen. Calls follow the shape of the dose curve; as a rule, active = well fitted inhibition curve with a large enough effect; inconclusive = small, poorly fitted or top-dose-only effect; inactive = no such curve, though single readings can be large or run the other way. Potencies of inconclusive entries are doubtful fits and often do not repeat.

experiment: qHTS Primary assay for Inhibitors of Plasmodium falciparum Dd2 growth in vitro; also: nearly all actives have a fitted effect of over 65% in size;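 as to activity, negative = inhibition: plate controls were DMSO vehicle for no effect and reference drug for full effect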; conditions: P. falciparum Dd2 growth, SYBR Green, 72 h; activity, negative = inhibition: at 28.9 µM (top of the series) unless noted; series mostly up to 28.9 µM
Procedure, shortened: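 Readout: SYBR Green fluorescence, 485 nm excitation, 535 nm emission, after ~16 h lysis at 37C. Before that, Dd2-infected red cells (2.5% hematocrit) grew 72 h with compound, 29 uM top final concentration.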
Potency is read from the fitted curve at half-maximal effect; tags tell the direction and shape of the fitted curve.

| Compound | Potency | outcome | activity, negative = inhibition |
| --- | --- | --- | --- |
| COc1cccc(NC(=O)N2CCOC(CN(CC(C)C)C(=O)c3cccc(OC)c3)C2)c1 (centres undefined) | inconclusive: 6.31 µM [inhibitor, partial curve, poor fit] |  |  |
| COc1cccc(NC(=O)NC[C@H]2O[C@@H](CO)[C@@H](O)[C@H]2N2CCN(c3ccc(F)cc3)CC2)c1 |  | inactive |  |
| OCC1CN(Cc2cnc[nH]2)CCC12CCN(CCCn1cccn1)CC2 (centres undefined) |  |  | inactive: 6.52% |
| CCC1=Nc2cc(C(=O)NC3CCCC3)ccc2Sc2ccc(Cl)cc21 | active: 4.47 µM |  |  |
| Cc1ccc2c(n1)N(C)[C@H](CO)CCN(Cc1ccc(C#N)cc1)C2 | inconclusive: 17.8 µM [inhibitor, single point] |  |  |
| COc1cc(CNCCSc2nnnn2C)ccc1OCc1ccccc1 | inconclusive: 20 µM [inhibitor, single point] |  |  |
| COc1cccc(Cn2c(=O)n(-c3cc(C)cc(C)c3)c(=O)c3oc4ccccc4c32)c1 | inconclusive: 10 µM [inhibitor, single point] |  |  |
| COc1ccc(N2CC3CCC(C2)N3Cc2cccc(Cl)c2)cc1 |  |  | inactive: 3.26% |
| O=C(c1ccc(F)cc1)N1CCC(N2CCCCCC2=O)CC1 | inactive |  |  |
| FC(F)(F)c1cccc(C2=NOC3(CCCN(CC4CCCCC4)C3)C2)c1 (centres undefined) | inconclusive: 17.8 µM [inhibitor, single point] |  |  |
| CCC(CC)C(=O)Nc1cccc(-c2cn3cccnc3n2)c1 | inconclusive: 20 µM [inhibitor, single point] |  |  |
| Cc1c(Cl)cccc1-c1ccc(C(=O)Nc2ccc3oc(-c4cccnc4)nc3c2)o1 | inconclusive: 12.6 µM [inhibitor, partial curve, poor fit] |  |  |
| CN(C)c1cccc(Oc2nnnn2[C@H]2CO[C@H]3[C@@H]2OC[C@@H]3NC(=S)Nc2cccc(C#N)c2)c1 |  | inactive |  |
| OC[C@@H]1CN(Cc2ccccc2F)C[C@H]1c1nc(-c2ccncc2)no1 | inconclusive: 17.8 µM [inhibitor, single point] |  |  |
| COCc1nc(C2CCN(C(=O)CCc3c[nH]c4ccccc34)C2)no1 (centres undefined) | inconclusive: 7.94 µM [inhibitor, partial curve] |  |  |
| CN1CCC(NC[C@H]2Cn3c(-c4ccc5c(c4)OCCO5)cnc3CO2)CC1 | inconclusive: 15.8 µM [inhibitor, single point] |  |  |
| COCC(=O)N1CCC2(CC1)CCN(Cc1cccs1)c1ccccc1O2 | inconclusive: 0.891 µM [inhibitor, partial curve] |  |  |
| Cc1cnc(CC2CCN(C(=O)Cc3cccnc3)CC2)n1Cc1ccc(F)cc1 | inconclusive: 8.91 µM [inhibitor, partial curve, poor fit] |  |  |
| FC(F)(F)c1ccc(-c2cnc([C@@H]3COCCN3Cc3ccccn3)[nH]2)cc1 | inconclusive: 1.78 µM [inhibitor, partial curve, poor fit] |  |  |
| COC[C@@H]1CN(C(=O)c2ccc(C(C)(C)C)cc2)C[C@H]1c1nc(C)no1 |  |  | inactive: -17.4% |
| CCCCC12CN3CC(C)(CN(C1)C3c1ccccn1)C2=O (centres undefined) | inconclusive: 17.8 µM [inhibitor, single point] |  |  |
| O=S(=O)(N[C@H]1[C@H](O)[C@H](O)C[C@@H]1c1cncnc1)c1ccc(Cl)cc1 |  |  | inactive: 5.64% [at 44.1 µM] |

| Compound | Potency | outcome | activity, negative = inhibition |
| --- | --- | --- | --- |
| O=C(NC1CCN(c2cc(-c3ccc(F)cc3)[nH]n2)C1)c1ccccc1Br (centres undefined) |  | inactive |  |
| COc1ccc(OCC(=O)NC2CCN(c3cc(-c4ccccc4)[nH]n3)CC2)cc1 |  | inactive |  |
| Cc1ccc(-n2c(C3CCN(C(=O)c4cccc(C)c4)CC3)n[nH]c2=O)cc1 |  |  | inactive: -1.73% |
| c1coc(-c2nc3nccc(-c4ccc5c(c4)OCCCO5)n3n2)c1 | inconclusive: 6.31 µM [inhibitor, partial curve] |  |  |
| COc1ccc(C(=O)Nc2ccc([C@H]3OCC(=O)N(CCN)[C@@H]3CO)cc2)cc1 | inconclusive: 22.4 µM [inhibitor, single point] |  |  |
| CCc1ccc(C2=CC(c3cccc(OC)c3OC)n3c(nc4ccccc43)N2)cc1 (centres undefined) | active: 8.91 µM |  |  |
| COCCN[C@H]1[C@@H]2OC[C@@H](O2)[C@@H](NCc2ccc(-c3ccccc3)cc2)[C@@H]1O | active: 10 µM |  |  |
| O=[S+]1([O-])NC2(CCCN(Cc3ccccc3)C2)CNc2ccccc21 (centres undefined) | inconclusive: 3.55 µM [inhibitor, single point] |  |  |
| O=C(NCC1(O)CCCCC1)c1ccc2nc(Cc3ccccc3F)oc2c1 |  |  | inactive: -17% |
| COc1cccc(CNC(=O)[C@@H]2C[C@@H](O)CN2C2CCN(C(=O)C(C)C)CC2)c1 |  |  | inactive: -3.17% |
| NC1CCc2nn(CC(=O)N3CCc4ccccc43)c(=O)n2CC1 (centres undefined) |  |  | inactive: 20.1% |
| Fc1ccccc1-c1cnc2n[nH]c(-c3ccc4c(c3)OCO4)c2n1 |  | inactive [at 44.1 µM] |  |
| Fc1ccc(-c2cc(-c3ccc(F)cc3)c3c(n2)-c2cc(F)ccc2OC3)cc1 | inconclusive: 17.8 µM [inhibitor, single point] |  |  |
| Cn1ccnc1CNC(=O)C[C@@H]1C[C@H]2O[C@H](CNCc3ccccc3OC(F)(F)F)[C@@H](O)[C@H]2O1 |  |  | inactive: 19.5% |
| CCOCC1(C)COc2ccc(C(=O)NCCc3ccccc3)cc2N1 (centres undefined) |  | inactive [at 44.1 µM] |  |
| CS(=O)(=O)c1ccc(CN2CCOC[C@H]2c2ncc(-c3ccc(C(F)(F)F)cc3)[nH]2)cc1 | inconclusive: 10 µM [inhibitor, single point] |  |  |
| C=C[C@H]1CN2CC[C@H]1C[C@@H]2CNCc1ccc(OC(F)(F)F)cc1 | inconclusive: 2.24 µM [inhibitor, partial curve] |  |  |
| COc1ccc(-c2cc(-c3nc(-c4cc(OC)c(OC)c(OC)c4)no3)[nH]n2)c(OC)c1 | inconclusive: 17.8 µM [inhibitor, single point] |  |  |
| O=C(NCCCN1CCN(c2ccccc2F)CC1)c1ccc2nc(CCc3ccccc3)oc2c1 | active: 11.2 µM |  |  |
| COC[C@@H]1CN(C(=O)c2ccccc2OC)C[C@H]1c1nc(C2CC2)no1 |  |  | inactive: -16.3% |
| COc1cccc(CN2C(=O)CCCCC2C(=O)NCCc2c[nH]c3ccc(OC)cc23)c1 (centres undefined) | inconclusive: 2 µM [inhibitor, partial curve, poor fit] |  |  |
| COc1cc2c(cc1CCc1ccccc1)N([S+](=O)([O-])c1ccc3c(c1)CCO3)CC21CCN(C(C)=O)CC1 | active: 10 µM |  |  |
